Results are given in words; binding and its absence hold for the method and conditions named.
Legend:
Assay in all cases: SPR; SPR imaging (SPRi, Biacore Flexchip): partners spotted in triplicate on a bare gold chip at 0.06 to 1 mg/ml; purified LOX-PP injected at 2 µM and recirculated for 20 min; PBS with 0.05% Tween 20, 25 °C; both purified
Biglycan = molecular target: T1, Biglycan (UniProt P21809)
T1 sequence: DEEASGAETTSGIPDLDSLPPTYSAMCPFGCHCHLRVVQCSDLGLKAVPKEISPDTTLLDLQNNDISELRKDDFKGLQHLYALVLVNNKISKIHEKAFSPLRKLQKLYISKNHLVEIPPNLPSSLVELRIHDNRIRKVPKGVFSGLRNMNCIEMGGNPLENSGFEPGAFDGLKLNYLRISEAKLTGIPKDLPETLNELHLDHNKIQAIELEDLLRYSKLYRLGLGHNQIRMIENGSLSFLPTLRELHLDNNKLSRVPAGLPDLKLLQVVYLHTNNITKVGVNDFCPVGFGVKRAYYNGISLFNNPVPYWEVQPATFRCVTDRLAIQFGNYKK

Amino acid sequences for entries named in this document (tags omitted). A change or cut given only in a name is not applied to a line headed by its entry. Chains listed by the source or under a name are the forms on record and can include a tag or linker. Residues count along the entry.
Endostatin (expressed in Pichia pastoris) (P39060, residues 1572-1754): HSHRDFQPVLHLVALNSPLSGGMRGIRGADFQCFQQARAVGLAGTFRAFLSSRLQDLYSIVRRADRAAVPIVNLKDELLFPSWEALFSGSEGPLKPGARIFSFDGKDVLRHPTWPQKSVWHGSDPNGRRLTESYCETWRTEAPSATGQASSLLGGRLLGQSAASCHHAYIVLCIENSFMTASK
Endostatin, mutant Asp1675Asn (P39060, form named): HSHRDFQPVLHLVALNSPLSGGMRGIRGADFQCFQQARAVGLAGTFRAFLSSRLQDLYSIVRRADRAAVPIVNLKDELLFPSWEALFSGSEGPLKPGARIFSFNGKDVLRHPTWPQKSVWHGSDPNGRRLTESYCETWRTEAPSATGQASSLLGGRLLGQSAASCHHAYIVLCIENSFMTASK
Endostatin, mutant Arg1598Ala, Arg1710Ala (P39060, form named): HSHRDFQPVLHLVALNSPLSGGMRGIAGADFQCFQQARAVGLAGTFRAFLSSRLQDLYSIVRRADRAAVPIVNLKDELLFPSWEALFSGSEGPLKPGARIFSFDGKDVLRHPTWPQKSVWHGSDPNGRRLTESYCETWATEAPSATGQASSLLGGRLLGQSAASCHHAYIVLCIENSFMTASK
UniProt P55066, residues 23-637: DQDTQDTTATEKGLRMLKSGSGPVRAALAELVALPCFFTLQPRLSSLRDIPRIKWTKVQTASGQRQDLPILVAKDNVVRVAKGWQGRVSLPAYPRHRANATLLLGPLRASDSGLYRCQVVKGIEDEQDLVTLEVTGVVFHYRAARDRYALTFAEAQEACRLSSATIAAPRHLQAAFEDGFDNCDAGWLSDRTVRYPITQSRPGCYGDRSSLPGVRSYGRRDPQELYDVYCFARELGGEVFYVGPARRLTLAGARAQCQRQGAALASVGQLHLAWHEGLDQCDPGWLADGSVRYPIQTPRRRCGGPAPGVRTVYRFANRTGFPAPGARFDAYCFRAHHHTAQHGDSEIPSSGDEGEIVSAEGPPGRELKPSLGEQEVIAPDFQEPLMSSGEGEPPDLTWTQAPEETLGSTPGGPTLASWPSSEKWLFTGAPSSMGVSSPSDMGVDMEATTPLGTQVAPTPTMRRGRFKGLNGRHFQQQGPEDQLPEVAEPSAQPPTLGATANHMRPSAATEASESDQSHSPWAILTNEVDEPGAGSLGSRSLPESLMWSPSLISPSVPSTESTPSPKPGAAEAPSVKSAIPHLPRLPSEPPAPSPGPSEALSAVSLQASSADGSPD
UniProt Q96GW7, residues 23-911: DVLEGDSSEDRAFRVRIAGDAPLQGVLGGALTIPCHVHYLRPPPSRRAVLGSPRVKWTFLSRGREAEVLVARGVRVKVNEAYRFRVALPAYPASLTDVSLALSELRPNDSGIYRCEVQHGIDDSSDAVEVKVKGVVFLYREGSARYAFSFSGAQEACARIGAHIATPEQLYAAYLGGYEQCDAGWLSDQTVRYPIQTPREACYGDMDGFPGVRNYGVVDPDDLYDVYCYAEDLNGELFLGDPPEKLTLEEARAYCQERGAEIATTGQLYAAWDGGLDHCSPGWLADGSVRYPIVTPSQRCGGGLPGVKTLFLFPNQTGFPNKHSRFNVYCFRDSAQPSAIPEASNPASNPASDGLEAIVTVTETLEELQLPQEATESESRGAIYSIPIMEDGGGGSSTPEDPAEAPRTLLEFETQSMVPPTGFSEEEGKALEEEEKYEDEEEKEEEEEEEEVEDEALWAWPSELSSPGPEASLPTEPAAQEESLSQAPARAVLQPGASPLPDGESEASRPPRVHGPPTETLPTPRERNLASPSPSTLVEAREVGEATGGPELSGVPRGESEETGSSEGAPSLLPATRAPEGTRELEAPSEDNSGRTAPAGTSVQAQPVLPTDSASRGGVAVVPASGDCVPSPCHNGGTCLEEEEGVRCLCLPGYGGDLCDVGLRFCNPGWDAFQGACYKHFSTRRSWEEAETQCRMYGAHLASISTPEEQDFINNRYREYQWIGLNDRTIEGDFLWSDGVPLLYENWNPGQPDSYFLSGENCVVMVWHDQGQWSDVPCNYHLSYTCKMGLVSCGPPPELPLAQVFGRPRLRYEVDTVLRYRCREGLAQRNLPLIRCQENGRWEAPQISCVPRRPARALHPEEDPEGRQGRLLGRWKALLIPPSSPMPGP
UniProt Q08345, residues 21-416: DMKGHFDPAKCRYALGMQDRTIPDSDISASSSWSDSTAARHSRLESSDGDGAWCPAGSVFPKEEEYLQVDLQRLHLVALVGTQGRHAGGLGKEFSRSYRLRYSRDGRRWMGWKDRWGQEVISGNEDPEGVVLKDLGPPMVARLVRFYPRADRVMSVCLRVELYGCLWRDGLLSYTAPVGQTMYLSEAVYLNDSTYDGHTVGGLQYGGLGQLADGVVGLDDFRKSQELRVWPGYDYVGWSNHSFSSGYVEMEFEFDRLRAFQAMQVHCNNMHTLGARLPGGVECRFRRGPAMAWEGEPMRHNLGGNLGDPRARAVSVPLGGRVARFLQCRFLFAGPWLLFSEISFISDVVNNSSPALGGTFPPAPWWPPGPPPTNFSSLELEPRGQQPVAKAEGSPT
UniProt P07585, residues 17-359: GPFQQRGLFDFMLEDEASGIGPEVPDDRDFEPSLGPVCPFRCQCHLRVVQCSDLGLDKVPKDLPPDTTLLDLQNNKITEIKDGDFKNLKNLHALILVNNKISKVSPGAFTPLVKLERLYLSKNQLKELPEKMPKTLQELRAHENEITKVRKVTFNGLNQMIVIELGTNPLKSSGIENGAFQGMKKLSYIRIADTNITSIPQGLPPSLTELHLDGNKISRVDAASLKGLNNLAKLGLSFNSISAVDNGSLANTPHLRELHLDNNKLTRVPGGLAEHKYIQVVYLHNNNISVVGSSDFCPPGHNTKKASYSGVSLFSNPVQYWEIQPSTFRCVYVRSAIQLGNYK
Lysyl oxidase propeptide (LOX-PP) (Pro24Leu) (P28300, form named): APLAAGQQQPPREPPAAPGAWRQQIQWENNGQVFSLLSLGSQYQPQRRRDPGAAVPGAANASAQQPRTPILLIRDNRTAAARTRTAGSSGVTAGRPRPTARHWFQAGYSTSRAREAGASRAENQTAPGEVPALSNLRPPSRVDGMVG

[1] = molecular target: Platelet-derived growth factor receptor beta (PDGFRβ), mutant Glu241Asp (UniProt P09619)
[2] = molecular target: Endostatin (expressed in Pichia pastoris) (UniProt P39060)
Neurocan = Neurocan (UniProt P55066)
[3] = molecular target: T2, Procollagen C-proteinase enhancer 1 (PCPE-1) (UniProt Q15113)
T2 sequence: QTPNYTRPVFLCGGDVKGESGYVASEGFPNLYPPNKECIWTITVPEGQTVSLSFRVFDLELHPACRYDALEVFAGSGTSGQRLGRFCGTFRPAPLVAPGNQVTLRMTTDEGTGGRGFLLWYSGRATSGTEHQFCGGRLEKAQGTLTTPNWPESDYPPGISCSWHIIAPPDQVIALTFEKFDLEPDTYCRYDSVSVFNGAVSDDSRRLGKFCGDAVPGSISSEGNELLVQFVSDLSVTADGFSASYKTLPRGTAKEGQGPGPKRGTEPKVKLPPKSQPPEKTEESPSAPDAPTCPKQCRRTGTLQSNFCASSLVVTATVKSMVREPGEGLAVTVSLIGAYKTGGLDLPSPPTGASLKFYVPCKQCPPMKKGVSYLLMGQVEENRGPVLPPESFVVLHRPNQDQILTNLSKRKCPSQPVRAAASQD

[4] = molecular target: Epidermal growth factor receptor (EGFR) (UniProt P00533)
Brevican = Brevican (UniProt Q96GW7)
[5] = molecular target: T3, Discoidin domain-containing receptor 2 ectodomain (DDR2) (UniProt Q16832)
T3 sequence: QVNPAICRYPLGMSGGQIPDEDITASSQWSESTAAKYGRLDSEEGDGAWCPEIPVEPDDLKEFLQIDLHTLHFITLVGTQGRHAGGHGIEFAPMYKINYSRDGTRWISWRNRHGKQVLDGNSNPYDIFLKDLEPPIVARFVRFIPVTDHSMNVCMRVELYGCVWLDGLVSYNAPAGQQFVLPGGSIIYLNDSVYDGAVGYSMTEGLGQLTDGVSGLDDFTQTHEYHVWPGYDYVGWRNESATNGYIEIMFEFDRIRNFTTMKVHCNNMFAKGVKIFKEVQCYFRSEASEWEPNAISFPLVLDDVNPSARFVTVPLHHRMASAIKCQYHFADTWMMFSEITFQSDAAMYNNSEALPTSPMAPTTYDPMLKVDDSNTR

[6] = molecular target: Endostatin, mutant Asp1675Asn (UniProt P39060)
[7] = molecular target: Discoidin domain-containing receptor 1 ectodomain (DDR1) (UniProt Q08345)
[8] = molecular target: Endostatin, mutant Arg1598Ala, Arg1710Ala (UniProt P39060)
Decorin = Decorin (UniProt P07585)

Measured: binding

Lysyl oxidase propeptide (LOX-PP) (Pro24Leu) (from UniProt P28300 22-168) (domain or fragment)
no binding (tested: 2 µM): all assays above
